Source: publication PMC4336329 (PLoS ONE, 2015)
In all, about 310,000 compounds went through this assay and about 14,000 (4.5%) showed an effect of 50% or more. The effect is printed as a negative number. Some of the results follow.

molecular target: human ether-à-go-go-related gene (hERG) potassium channel (human, UniProt Q12809); assay: primary screen, population patch clamp on CHO cells stably expressing hERG
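Also: peak tail current of the secondary pulse compared with the same well before compound.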

human ether-à-go-go-related gene (hERG) potassium channel, sequence (Q12809 whole entry, looked up): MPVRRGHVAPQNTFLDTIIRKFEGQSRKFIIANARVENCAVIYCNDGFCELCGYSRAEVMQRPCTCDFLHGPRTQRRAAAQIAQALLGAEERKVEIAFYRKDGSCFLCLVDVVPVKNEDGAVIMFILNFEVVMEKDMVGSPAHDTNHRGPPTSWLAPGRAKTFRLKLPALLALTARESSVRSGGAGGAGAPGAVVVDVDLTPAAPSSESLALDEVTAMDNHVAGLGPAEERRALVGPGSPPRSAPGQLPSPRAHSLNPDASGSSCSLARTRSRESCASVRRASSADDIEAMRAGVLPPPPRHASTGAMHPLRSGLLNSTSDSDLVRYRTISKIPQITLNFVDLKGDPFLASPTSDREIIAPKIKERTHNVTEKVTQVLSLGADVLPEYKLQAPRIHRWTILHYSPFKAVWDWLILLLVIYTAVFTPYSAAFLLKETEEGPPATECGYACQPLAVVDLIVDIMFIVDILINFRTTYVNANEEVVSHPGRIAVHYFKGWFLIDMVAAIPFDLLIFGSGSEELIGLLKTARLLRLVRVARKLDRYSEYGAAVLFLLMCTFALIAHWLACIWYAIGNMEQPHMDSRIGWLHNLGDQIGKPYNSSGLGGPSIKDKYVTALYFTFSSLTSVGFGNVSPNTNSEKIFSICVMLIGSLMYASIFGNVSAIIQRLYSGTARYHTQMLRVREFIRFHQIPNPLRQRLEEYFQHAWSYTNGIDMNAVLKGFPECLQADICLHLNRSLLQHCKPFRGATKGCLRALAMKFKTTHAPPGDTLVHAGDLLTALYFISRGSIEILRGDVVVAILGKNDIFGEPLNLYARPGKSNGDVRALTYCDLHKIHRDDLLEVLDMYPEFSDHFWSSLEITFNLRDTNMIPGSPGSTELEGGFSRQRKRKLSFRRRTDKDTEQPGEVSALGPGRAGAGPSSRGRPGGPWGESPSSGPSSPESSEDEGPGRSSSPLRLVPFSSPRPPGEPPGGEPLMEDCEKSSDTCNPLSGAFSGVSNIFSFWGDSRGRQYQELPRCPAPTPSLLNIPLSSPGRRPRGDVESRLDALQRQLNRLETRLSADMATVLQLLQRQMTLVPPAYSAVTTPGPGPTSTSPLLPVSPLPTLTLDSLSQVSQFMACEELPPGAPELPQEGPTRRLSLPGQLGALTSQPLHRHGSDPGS

SMILES | hERG current change (%, negative = inhibition) at 10uM [%]
CCOC(=O)N1CCN(Cc2nc3cc([N+](=O)[O-])ccc3n2C)CC1 | -24.5
C/C(=N\NC(=O)c1ccccc1NC(=O)c1ccc(Cl)cc1)c1ccncc1 | 4.55
C=CCNC(=O)C1=NOC(CNC(=O)c2c(-c3ccccc3Cl)noc2C)C1 (stereo not shown) | 14.8
CC(C)C[NH+]=c1cc(-c2ccccc2)oc2ccc(Cl)cc12.F[B-](F)(F)F | -87.4
CCOc1ccc(N2CC(C(=O)NCc3nnnn3-c3ccc(C)c(C)c3)CC2=O)cc1 (stereo not shown) | -18.8
O=C(Nc1ccc(-c2nc3ccccc3[nH]2)cc1)c1ccc2c(c1)OCO2 | 6.85
O=C(COC(=O)c1cnc(Cl)c(Cl)c1)NCc1cccs1 | 0.95
COc1ccc(NC(=O)CSc2nc(N)c(NC(=O)c3ccccc3F)c(=O)[nH]2)cc1 | -10.6
COc1cc(C(=O)N2C[C@H]3CC[C@H]2C3)ccc1OC1CCN(C(C)=O)CC1 | 11.5
CCOc1ccc(NC(=O)CNS(=O)(=O)c2c(C)cc(C)cc2C)cc1 | 11.5
NS(=O)(=O)c1ccc(NC(=S)Nc2ccc(S(=O)(=O)N3CCCC3)cc2)cc1 | 15.8
CNc1cccc2c1C(=O)c1ccccc1C2=O | -0.298
CCOC(=O)c1ccc(S(=O)(=O)NCC[NH+]2CCOCC2)cc1.[Cl-] | 39.5
Cc1cc(Cl)ccc1OCC(=O)Nc1ccccc1N1CCOCC1 | -23.2
O=C(COC(=O)C1=COCCO1)Nc1ccc2c(c1)OCO2 | 13.2
Cc1cccc(NC(=S)N/N=C/c2ccc(Cl)c([N+](=O)[O-])c2)c1 | 3.28
CN1CCN(c2ccc(S(=O)(=O)N3CCCCC3)cc2NC(=O)Cc2ccccc2F)CC1 | -31
COC(=O)c1sc(NC(=O)c2ccc(OC)cc2OC)nc1C | 10.7
O=C(CSc1nnc(-c2ccncc2)o1)Nc1ccccc1Cl | 12.3
O=C(CSc1nncs1)Nc1ccc2[nH]c(=O)[nH]c2c1 | 3.88
CCC1(C)SC(N)=NN1C(C)=O (stereo not shown) | 13.1
COc1ccc(Cc2nnc(SCC(=O)N(C)CC(=O)Nc3ccc(C)cc3)o2)cc1 | -22.2

SMILES | hERG current change (%, negative = inhibition) at 10uM [%]
COc1ccc(S(=O)(=O)NNC(=O)C2COc3ccccc3O2)cc1[N+](=O)[O-] (stereo not shown) | 12.6
CCOC(=O)c1sc(NC(NC(=O)c2ccco2)(C(=O)OC)C(F)(F)F)nc1C (stereo not shown) | 3.54
CC(OC(=O)c1n[nH]c2ccccc12)C(=O)NC1CCCCC1C (stereo not shown) | -0.049
C=CCN(CC=C)CCOc1ccc(C)cc1[N+](=O)[O-].O=C(O)C(=O)O | -47.3
S=c1sc2c(N3CCN(Cc4ccccc4)CC3)ncnc2n1-c1ccccc1 | -8.67
CCOc1ccc(C/C(N)=N/n2cnnc2)cc1 | -0.498
O=C(c1cc(-c2ccc(Cl)cc2)n(-c2cc(Cl)ccc2Cl)n1)N1CCOCC1 | -68.9
Cc1cccc(N(C(=O)c2csnn2)C(C(=O)NCc2ccccc2)c2ccc(C)o2)c1 (stereo not shown) | -54.6
Cc1ccc2nc(NC(=O)COC(=O)c3ccccn3)sc2c1 | -42.5
Cc1ccc(CSCC(=O)NCc2ccc3c(c2)OCO3)cc1 | -16.4
Cc1ccc(Cl)c(OCC(=O)NCc2ccco2)c1 | 1.03
CC(=O)c1cccc(NC(=O)c2oc(C)nc2C)c1 | -3.93
Cc1csc2nc(CSc3nncn3-c3ccccc3)c(Br)n12 | -9.86
COc1cccc(NC(=O)CCC2CCN(C(=O)c3ccc(C(C)=O)s3)CC2)c1 | -36.9
COc1ccc(/C=C/C(=O)Nc2cc(S(=O)(=O)N3CCOCC3)ccc2N2CCCC2)cc1OC | -40.3
CN(C)CCNC(=O)c1ccc(-c2nn(C)c(=O)c3ccccc23)cc1 | -3.02
OCC[C@@H]1C[C@H](O)[C@@H](O)[C@]2(CCCc3ccccc3O2)O1 | 17.1
CC(C)(C)c1ccc(OCCCn2ccnc2)cc1 | -11.6
N#CCCn1cc(C(=O)N2CCCCC2)c(-c2cccc([N+](=O)[O-])c2)n1 | 1.87
O=C(O)C1CCN(c2ccc(S(=O)(=O)N3CCC(C(=O)O)CC3)cc2[N+](=O)[O-])CC1 | 20.5
Cc1cn(S(=O)(=O)c2ccccc2[N+](=O)[O-])cn1 | 23.4
COc1ccc(-n2nc(C(=O)NCC(=O)NC3CCCCCC3)c3ccccc3c2=O)c(OC)c1 | 11.1

SMILES | hERG current change (%, negative = inhibition) at 10uM [%]
CCOCc1nnc(NC(=O)c2cccs2)s1 | -1.25
CC(=O)Oc1cccc(-c2nc3ccccc3c(=O)o2)c1 | 9.58
CSc1ccccc1NC(=O)Nc1cccc(F)c1 | 14.3
O=C(CSc1ncc(-c2ccccc2)[nH]1)Nc1ccccc1 | -14.6
CC(Sc1nc2ccccc2n1C)C(=O)NC(c1ccccc1)c1ccccc1 (stereo not shown) | -7.7
O=C(/C=C/c1cccs1)N1CCN(c2ccc(F)cc2)CC1 | -11.1
CCOC(=O)c1oc2cc(O)cc(C)c2c(=O)c1-c1cscn1 | -8.53
CC(C)(CO)NC(=S)NCc1ccco1 | 6.39
CC(=O)Nc1ccccc1C(=O)C(=O)Nc1cccc(C(=O)N2CC(C)CC(C)C2)c1 (stereo not shown) | -24
COc1cc(CNc2ccc(C(=O)O)cc2)cc(Br)c1OCC(=O)NC(C)(C)C | 6.14
CCOC(=O)C1C(=O)NC(SC)=C(C#N)C1c1ccccc1F (stereo not shown) | -5.64
Cc1ccc(S(=O)(=O)NCC(=O)OC(C)C(=O)NC(=O)NC2CCCCC2)cc1C (stereo not shown) | -3.12
O=C(NNC(=O)c1cccs1)c1ccc([N+](=O)[O-])cc1 | 2.77
O=C(COC(=O)c1ccc(S(=O)(=O)N2CCCC2)cc1)Nc1cccc(Br)c1 | -31.9
Cl.N=C(N)c1ccccc1.O | 19.9
O=C(CSc1nnc(-c2ccco2)o1)Nc1c(F)cccc1F | -1.95
CC1CCCCN1S(=O)(=O)c1cn(C)c(=O)n(C)c1=O (stereo not shown) | 0.369
Cc1cc(C)c2[nH]c(=O)c(CN(Cc3ccccc3)C(=S)NCCCN(C)C)cc2c1 | -52.8
N#Cc1c(N)oc(-c2cccs2)c1-c1cccs1 | 2.03
CCOC(=O)C1C(c2ccccc2Cl)NC(=O)N(C)C1(O)C(F)(F)F (stereo not shown) | -2.6
CN(Cc1cnn(C)c1)Cc1nc(COc2ccccc2)no1 | 18.3
O=C(Nc1cccc(S(=O)(=O)Nc2ccccc2Cl)c1)c1ccc(N2CCCC2)c([N+](=O)[O-])c1 | 4.32

SMILES | hERG current change (%, negative = inhibition) at 10uM [%]
O=C1CC(N2CCN(C3CC(=O)N(CCc4ccccc4)C3=O)CC2)C(=O)N1CCc1ccccc1 (stereo not shown) | -6.78
CCCCc1cc(=O)oc2cc(OCC(=O)N(CC)CC)ccc12 | -41.2
COc1cccc(/C=C/C(=O)OCC(=O)NC(=O)NC2CCCC2)c1 | 1.72
COc1ccc(NC(=O)CC2C(=O)N(C)C(=S)N2CCc2ccccc2)cc1 (stereo not shown) | 7.83
Cc1cccn2cc(CNC(=O)CC3CCCC3)nc12 | -0.0505
O=C(N/N=C/c1cc([N+](=O)[O-])ccc1O)C(O)(c1ccccc1)c1ccccc1 | 4.13
N#Cc1cc(C#N)c(SCC(=O)NCC2CCCO2)nc1N (stereo not shown) | 10.8
COc1cccc(CN(C)C(=O)c2cccc(NC(=O)CC3SC(N4CCCCC4)=NC3=O)c2)c1OC (stereo not shown) | -0.0991
CCN(CC)CCNc1nc2c(c(=O)[nH]c(=O)n2C)n1CC(O)COc1ccc(Cl)cc1Cl (stereo not shown) | -70.2
O=C(NNC(=S)Nc1cccc(C(F)(F)F)c1)c1cccc(Cl)c1 | 21.6
O=C(O)[C@@H]1CCCN1c1ncnc2sc3c(c12)CCC3 | -1.12
CCC1CCCCN1CCCNC(=O)c1cc2c(=O)[nH]c3ccccc3c2n1C (stereo not shown) | -4.57
COc1ccc(CC(=O)NN2C(=O)c3ccccc3C2=O)cc1 | -1.6
COC(=O)COc1ccc(S(=O)(=O)N2CCCCCC2)cc1 | -5.57
Cn1nccc1NC(=O)Nc1cccc(Br)c1 | 2.93
CC(C)/C(=N\NS(=O)(=O)c1ccc(Br)cc1)c1cccs1 | 1.84
CC1=C(C(=O)OCCNC(=O)c2cccnc2)C(c2cccc([N+](=O)[O-])c2)C(C(=O)OCCN(C)C)=C(C)N1.CCO (stereo not shown) | -1.75
O=C(Nc1ccccc1)C1CCOC1=O (stereo not shown) | 16.1
OCCCCNc1cccc2ccccc12 | 7.65
CC(C)(C)CC(C)(C)NC(=O)Nc1cccc([N+](=O)[O-])c1 | 11.8
CCOC(=O)CN1C(=O)S/C(=C/C=C/c2ccc(N(C)C)cc2)C1=O | 6.59
O=C(Cc1ccccc1)Nc1nnc(SCC(=O)NC2CCCC2)s1 | 11.2
